Test results taken from PubChem BioAssay AID624418 (National Center for Advancing Translational Sciences (NCATS), 2012).
Several values for one entry are separate records, joined by “and”; a condition that tells them apart may be missing. Equal values may be shown once. Screen size: about 410,000 compounds; about 530 (0.13%) were called active. This list was built around the results that the source calls inconclusive (neither active nor inactive); the mix of calls is not that of the screen. Calls come from the whole dose curve; as a rule, active = well fitted inhibition curve with a large enough effect; inconclusive = small, poorly fitted or top-dose-only effect, or another doubt; inactive = no such curve, though single readings can be large or run the other way. Potencies of inconclusive entries are doubtful fits and often do not repeat.

Experiment: qHTS of GLP-1 Receptor Inverse Agonists: Cytotox Screen
Settings: HEK293 cAMP-luciferase reporter cells, luminescence, 24 h; activity change, negative = inhibition: at 38.3 µM (top of the series) unless noted
In short: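 To flag toxic compounds, the library was rerun on cells for 24 hr at 37 deg C and 5% CO2. Viability-linked luminescence was captured 12 min after adding luciferase detection reagent.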
% is set by controls: 0 for no effect and ±100 for the full control effect; potency is the fitted concentration of half-maximal effect.

Structure (SMILES)	Potency	activity change, negative = inhibition
COc1ccc(C(=O)N(c2ccc(C)cc2)S(=O)(=O)c2ccc(C)cc2)cc1	inconclusive: 5.62 µM [inhibitor, partial curve, poor fit]	
Cc1ccccc1CC1(CO)CCCN(Cc2nc(-c3cccs3)oc2C)C1 (stereo not drawn)	inconclusive: 11.2 µM [inhibitor, single point]	
CCOC(=O)NC1(NCC(C)C)Oc2ccccc2O1	inconclusive: 15.8 µM [inhibitor, single point]	
CN(C)CCN[C@H]1CCC2C3CC=C4C[C@@H](O)CC[C@]4(C)C3CC[C@@]21C (stereo partly drawn)	inconclusive: 10 µM [inhibitor, partial curve]	
COc1cc(/C=C2/SC(=S)N(CC3CCCO3)C2=O)ccc1O (stereo not drawn)	inconclusive: 28.2 µM [inhibitor, single point]	
COc1ccc(/C=C2/SC(=S)N(CCC(=O)N3CCN(C)CC3)C2=O)cc1	inconclusive: 5.01 µM [inhibitor, full curve]	
Clc1ccc(/C=C/c2nc3ccccc3[nH]2)c(Cl)c1	inconclusive: 28.2 µM [inhibitor, single point]	
O=C(CSc1n[nH]c(=O)n1-c1cccnc1)N1CCOCC1	inconclusive: 2 µM [inhibitor, partial curve, poor fit]	
CCCCOc1cccc(-c2cc(C(=O)NNC(=S)NCC)c3ccccc3n2)c1	inconclusive: 28.2 µM [inhibitor, partial curve, poor fit]	
C=CCn1c(C(CCCC)CC(O)COCCC)n[nH]c1=S (stereo not drawn)		inactive: -0.329%
O=C(Nc1ccn(Cc2ccccc2F)n1)c1ccc(COc2ccccc2Cl)cc1		inactive: -11.5%
COc1cc2ccccc2cc1C(=O)N1CCN(c2nc3c(F)cc(F)cc3s2)CC1		inactive: -1.35%
O=C(NC1CCCC1)c1nc2c(nnn2Cc2ccccc2Cl)c(=O)[nH]1	inconclusive: 12.6 µM [inhibitor, single point]	
Cc1cc(/C=C(\C#N)C(=O)N2CCCCC2)cc(C)c1O	inconclusive: 8.91 µM [inhibitor, partial curve]	
O=C(NCc1cccs1)c1ccncc1		inactive: -14%
O=C(CSc1ccc(-c2nc3ccccc3[nH]2)cn1)N1CCN(C(=O)c2ccco2)CC1		inactive: -28.4%
CC(=O)c1cccc(Nc2cc(C)nc3c(C)cc(C)cc23)c1	inconclusive: 11.2 µM [inhibitor, partial curve, poor fit]	
CC(Oc1ccccc1)C(=O)Nc1nc(-c2ccccn2)cs1 (stereo not drawn)	inconclusive: 11.2 µM [inhibitor, partial curve, poor fit]	
CCCCn1c(N)c(N(CC)C(=O)Cc2ccc(S(=O)(=O)N3CCOCC3)s2)c(=O)[nH]c1=O		inactive: 15%
CCC(C)N(C(=O)CCC(=O)Nc1cc(C)on1)C(C(=O)NC(C)(C)C)c1ccccc1Cl (stereo not drawn)	inconclusive: 28.2 µM [inhibitor, single point]	
O=C(CSc1nnc(COc2ccccc2)o1)N1CCOCC1		inactive: 4.01%
COC(=O)C1NN=C(C(=O)c2ccc(Br)cc2)C1c1cccc(Br)c1 (stereo not drawn)	inconclusive: 28.2 µM [inhibitor, single point]	

Structure (SMILES)	Potency	activity change, negative = inhibition
COc1ccc(OC)c(NC(=O)Nc2ccc3c(c2)OCO3)c1	inconclusive: 0.501 µM [inhibitor, full curve, poor fit]	
COc1ccc2nc(C)cc(Nc3ccc(N4CCOCC4)cc3)c2c1	inconclusive: 17.8 µM [inhibitor, single point]	
O=C(COc1ccccc1Cl)N(Cc1cccc(F)c1)C1CCS(=O)(=O)C1 (stereo not drawn)		inactive: -7.34%
COC(=O)N/N=C/c1cn(Cc2ccccc2Cl)c2ccccc12	inconclusive: 6.31 µM [inhibitor, partial curve]	
Cn1c(=O)c2cc(NC(=O)Nc3ccccc3)ccc2n1Cc1ccccc1	inconclusive: 17.8 µM [inhibitor, single point]	
COc1cc(/C=N/Nc2nncn2N)ccc1OCc1c(C)no[n+]1[O-]	inconclusive: 10 µM [inhibitor, single point]	
C/C(=N\NC(=O)COc1ccccc1-c1ccccc1)c1ccccn1	inconclusive: 2.51 µM [inhibitor, full curve, poor fit]	
Brc1ccc(CN2CCSCC2)cc1		inactive: -8.75%
O=C(NNc1c([N+](=O)[O-])cc(C(F)(F)F)cc1[N+](=O)[O-])c1ccco1	inconclusive: 12.6 µM [inhibitor, single point]	
CCN(C(=O)Cn1c(=O)n(Cc2ccc3c(c2)OCO3)c(=O)c2ccc(C(=O)NC3CCCCC3)cc21)c1cccc(C)c1		inactive: 0.0914%
CN1CCN(Cc2nc3ccccc3c(=O)n2Cc2nc(-c3ccc4ccccc4c3)cs2)CC1	inconclusive: 10 µM [inhibitor, partial curve, poor fit] and inconclusive: 3.98 µM [inhibitor, full curve, poor fit]	
Cc1ccc2oc(C(Cl)(Cl)Cl)cc(=O)c2c1	inconclusive: 2.24 µM [inhibitor, full curve, poor fit]	
CCCC(C)C(=O)Nc1ncc(S(=O)(=O)c2ccc([N+](=O)[O-])cc2)s1 (stereo not drawn)	inconclusive: 11.2 µM [inhibitor, partial curve, poor fit]	
O=C(CCNC(=O)c1ccccc1)Oc1ccc([N+](=O)[O-])cc1	inconclusive: 12.6 µM [inhibitor, single point]	
Cc1ccc(NC(=S)Nc2ccc(Br)cc2)cc1		inactive: 6.08%
CCOC(=O)c1cnc2c(OC)cccc2c1N1CC(C)CC(C)C1 (stereo not drawn)	inconclusive: 14.1 µM [inhibitor, single point]	
Cc1cccc(NC(=S)N(CCCN2CCCC2)Cc2cccn2Cc2ccc(Cl)cc2)c1	inconclusive: 31.6 µM [inhibitor, single point]	
O=C(COc1ccc(S(=O)(=O)NC2CCCC2)cc1)N1CCCCC1		inactive: 4.1%
COc1cc(/C=N/N2C(=O)CSC2=S)cc(Br)c1O	inconclusive: 28.2 µM [inhibitor, single point]	
CCc1nnc(SC(CC)C(=O)Nc2cc(C)ccc2C)c2cc3occc3n12 (stereo not drawn)		inactive: 0.816%
NC(=S)NN=CCn1cc([N+](=O)[O-])c(=O)[nH]c1=O	inconclusive: 25.1 µM [inhibitor, single point]	
